Source: PubChem BioAssay AID1345082 (National Center for Advancing Translational Sciences (NCATS), 2018)
About 4,000 (4.3%) of roughly 94,000 compounds were called active. The shares of active, inactive and inconclusive entries below differ from those in the screen. Calls come from the whole dose curve; as a rule, active = well fitted inhibition curve with a large enough effect; inconclusive = small, poorly fitted or top-dose-only effect; inactive = no such curve, though single readings can be large or run the other way. Where the call is inconclusive, the potency comes from a doubtful curve fit.

Assay: Cytotoxic Profiling in NIH 3T3 Cell Line of Diverse Libraries Using Quantitative High-Throughput Screening; note: nearly all actives have a fitted effect of over 55% in size
Conditions: NIH 3T3 viability, CellTiter-Glo ATP luminescence, 48-72 h; series mostly up to 96.7 µM
How it was run: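 First NIH 3T3 cells are plated at 400 cells/well; next compound is pinned in; then plates incubate 48 or 72 hr at 37 °C; finally CellTiter-Glo is added and luminescence read after 10 min.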
Potency is the fitted concentration of half-maximal effect; tags give direction and shape of the fitted curve.

| SMILES | Potency |
| --- | --- |
| O=C(NC1CCCN(C(=O)C2CC2)C1)c1cccc(Cn2cccn2)c1 (stereo not drawn) | inactive |
| CC(=O)Nc1ccc(OCC(=O)NCc2ccccc2F)nc1 | inactive |
| O=C(Nc1ccccc1)N1CCC(CCc2nc(C3CCOCC3)no2)CC1 | inconclusive: 50.1 µM [inhibitor, partial curve, poor fit] |
| COCCN(Cc1nccs1)C(=O)c1oc2ccc(C)cc2c1C | inconclusive: 56.2 µM [inhibitor, partial curve, poor fit] |
| Fc1ccc(CCC2CCCN(Cc3nccs3)C2)cc1F (stereo not drawn) | inconclusive: 10 µM [inhibitor, partial curve, poor fit] |
| O=C(NCC(F)F)c1ccc2nnc(-c3ccc(Cl)cc3)n2c1 | inconclusive: 35.5 µM [inhibitor, partial curve, poor fit] |
| CN1CCN(c2ccc3ncc(Nc4ccc(Cl)c(C(F)(F)F)c4)n3n2)CC1 | inconclusive: 56.2 µM [inhibitor, partial curve, poor fit] |
| O=S(=O)(N[C@H]1CO[C@H]2[C@@H]1OC[C@@H]2n1cc(-c2ccccn2)nn1)c1cccc2cccnc12 | inconclusive: 50.1 µM [inhibitor, partial curve, poor fit] |
| COC1C(=O)N(c2cccc(F)c2)C12CCN(C(=O)C1CCOCC1)CC2 (stereo not drawn) | inactive |
| COc1ccccc1CCC(=O)N1CCN(c2cc(-c3ccccc3)[nH]n2)CC1 | inconclusive: 44.7 µM [inhibitor, partial curve, poor fit] |
| CC1(CNc2ccccc2)COc2ccc(C(=O)NCc3cccs3)cc2N1 (stereo not drawn) | inconclusive: 89.1 µM [inhibitor, partial curve] |
| O=C(NCc1ccc(F)cc1)N1CC(Oc2ccc(-c3noc(-c4ccccc4)n3)cc2)C1 | inconclusive: 7.94 µM [inhibitor, full curve, poor fit] |
| CC(=O)Nc1ccc(CN2C[C@@H](F)[C@@H](OCc3nc4ccccc4n3C)C2)cc1 | inconclusive: 112 µM [inhibitor, single point] |
| Cn1cc(CC(=O)N2CCCc3ncc(C(=O)NCc4ccccc4)cc32)c2ccccc21 | inconclusive: 50.1 µM [inhibitor, full curve, poor fit] |
| Cc1ccc(-c2cn3c(n2)CO[C@@H](CNS(=O)(=O)c2cccs2)C3)cc1 | inconclusive: 44.7 µM [inhibitor, partial curve, poor fit] |
| Cc1nc(C(C)NC(=O)c2coc(COc3cccc(F)c3F)n2)cs1 (stereo not drawn) | inconclusive: 50.1 µM [inhibitor, partial curve, poor fit] |
| CN(Cc1ccccc1)C(=O)C1CCCN(Cc2cccc(-c3ccsc3)c2)C1 (stereo not drawn) | inconclusive: 39.8 µM [inhibitor, partial curve, poor fit] |
| O=C1CCN(CC(O)Cc2ccccc2)c2ccccc2CCN1C/C=C/c1ccccc1 (stereo not drawn) | inconclusive: 17.8 µM [inhibitor, partial curve, poor fit] |
| CC(=O)N(C)C1CCCc2ccccc21 (stereo not drawn) | inactive |
| O=C1NC2(CCN(Cc3ccc(F)cc3)C2)Oc2ccccc21 (stereo not drawn) | inactive |
| O=C(Nc1ccc(F)cc1)C1CCc2nnc(-c3cccc(C(F)(F)F)c3)n21 (stereo not drawn) | inconclusive: 50.1 µM [inhibitor, partial curve, poor fit] |

| SMILES | Potency |
| --- | --- |
| Cn1ncc2c(C(=O)NC3CCOCC3)cc(-c3ccc(C(F)(F)F)cc3)nc21 | inactive |
| CC(=O)Oc1c(-c2ccc(NC(=O)C3CC3)cc2)c(-c2ccc3c(c2)OCO3)nn1-c1cccc(C)c1 | inconclusive: 70.8 µM [inhibitor, single point] |
| O=C(CCC1CCCC1)N1CCCC(CN2CCCC2)CC1 (stereo not drawn) | inconclusive: 44.7 µM [inhibitor, partial curve, poor fit] |
| CSc1ccc(-c2cccc(CN)c2)cc1 | active: 25.1 µM |
| C#CCN(C)Cc1nc(C2(O)CCN(Cc3ccccc3C(F)(F)F)CC2)cs1 | inconclusive: 44.7 µM [inhibitor, partial curve, poor fit] |
| C[S+](=O)([O-])c1ccc(-c2nc(C(=O)N3CCN(c4ncccn4)CC3)n3ccccc23)cc1 | inconclusive: 44.7 µM [inhibitor, partial curve, poor fit] |
| CC(C)c1noc(-c2cn(C3CCN(C(=O)c4ccco4)CC3)nn2)n1 | inconclusive: 50.1 µM [inhibitor, partial curve, poor fit] |
| O=C(NCc1cccnc1)c1cn2cc(-c3ccc(F)cc3)sc2n1 | inconclusive: 28.2 µM [inhibitor, partial curve] |
| CCCC1(C2CCN(C(=O)C(OC)c3ccccc3)CC2)NC(=O)N(CCc2cccs2)C1=O (stereo not drawn) | inconclusive: 56.2 µM [inhibitor, partial curve, poor fit] |
| CC(C)c1ccc(-n2cc(CN3CCCC(O)(CN(C)C)C3)cn2)cc1 (stereo not drawn) | inconclusive: 31.6 µM [inhibitor, full curve, poor fit] |
| OCC1(CN2CCCC2)CCN(C/C=C/c2ccccc2)CC1 | inconclusive: 50.1 µM [inhibitor, partial curve, poor fit] |
| COc1cccc(OC)c1C(=O)Nc1ccc2c(c1)CN(Cc1ccccc1F)C(=O)C(C)O2 (stereo not drawn) | inactive |
| Cn1cc(CN2CCCC23CCN(c2ncccn2)CC3)c(-c2ccccc2)n1 | inactive |
| CNC(=O)N1CCC(C2CCN(S(=O)(=O)c3ccc4c(c3)CCC4)C2)CC1 (stereo not drawn) | inconclusive: 50.1 µM [inhibitor, partial curve, poor fit] |
| O=C(c1ccc(F)cc1)N1CCN(c2ccc3nnc(C4CC4)n3n2)CC1 | inconclusive: 44.7 µM [inhibitor, partial curve, poor fit] |
| Cc1nc(N2CCC(NC(=O)Cc3ccc(Cl)cc3)CC2)cc(C(F)(F)F)n1 | inconclusive: 44.7 µM [inhibitor, partial curve, poor fit] |
| COc1ccccc1C(=O)NC1CCCN(Cc2ccc(-c3cncnc3)cc2)C1 (stereo not drawn) | inactive |
| Cc1ccccc1CC(=O)N1CCC2(CC1)N=C(c1cccc(Br)c1)NO2 | inconclusive: 50.1 µM [inhibitor, single point] |
| Cc1nc(CN2Cc3nc(OCc4ccc(F)cc4)ccc3OCC2=O)cs1 | inconclusive: 50.1 µM [inhibitor, partial curve, poor fit] |
| O=C(Nc1ccc2ncnc(N3CCCCC3)c2c1)c1cc(F)cc(F)c1 | inconclusive: 44.7 µM [inhibitor, partial curve, poor fit] |
| CCOc1cc(=O)n2c(c1C(=O)NCCc1ccccc1)CCCCC2 | inactive |

| SMILES | Potency |
| --- | --- |
| CN(C)c1ccc(CN2CCC3(C2)C(=NC2CCCC2)NC(=O)N3c2cccnc2)cc1 (stereo not drawn) | inconclusive: 35.5 µM [inhibitor, single point] |
| COc1cc(OC)cc(OCc2nc3c(n2Cc2ccccc2)C(=O)N(Cc2ccccc2F)CCN3)c1 | inconclusive: 28.2 µM [inhibitor, full curve] |
| Cc1cccc(CN2CCCC(c3nc(-c4cccnc4)no3)CCNC(=O)CC2)c1 (stereo not drawn) | inconclusive: 50.1 µM [inhibitor, partial curve, poor fit] |
| CN(C)c1ccc2ncc(Nc3cc(F)cc(N4CCOCC4)c3)n2n1 | inconclusive: 100 µM [inhibitor, single point] |
| COc1ccc(CN2CC3(CCN(C(=O)c4cn[nH]c4-c4ccc(F)cc4)CC3)C2=O)cc1 | inconclusive: 28.2 µM [inhibitor, partial curve] |
| CN1[C@@H](CCC(=O)N2CCN(c3ccccn3)CC2)CNC(=O)[C@@H]2[C@H]1CCN2Cc1ccc(CO)o1 | inactive |
| Cc1cc(C(=O)NC2CCCc3c2[nH]c2ccccc32)c2c(C)noc2n1 (stereo not drawn) | inconclusive: 50.1 µM [inhibitor, partial curve, poor fit] |
| CC1(C)[C@H]2CC[C@@H](CNC(=O)c3ccncc3)[C@@H]1C2 | inconclusive: 56.2 µM [inhibitor, partial curve, poor fit] |
| Cc1noc(C)c1[S+](=O)([O-])N1CCCC(c2nn(-c3cccc(Cl)c3)c(=O)[nH]2)C1 (stereo not drawn) | inactive |
| COc1ccc(Nc2ccnc(N3CCCC(C(=O)NCC4CC4)C3)n2)cc1 (stereo not drawn) | inconclusive: 39.8 µM [inhibitor, partial curve, poor fit] |
| COc1ccc(-c2cc(N3CCC(NC(=O)c4cccc(C)c4)C3)n[nH]2)cc1 (stereo not drawn) | inactive |
| O=C1c2cc(N3CCOCC3)nc(-c3cccnc3)c2CN1C1COC1 | active: 8.91 µM |
| COCCN1CCCC(c2[nH]ccc2C(=O)N2CCSCC2)C1 (stereo not drawn) | inactive |
| O=C(N1CCCCCC1)C1(CCO)CC12CCOCC2 (stereo not drawn) | inactive |
| O=C1NC2(CCCN(Cc3ccc(OC(F)(F)F)cc3)C2)COc2ccccc21 (stereo not drawn) | inconclusive: 50.1 µM [inhibitor, partial curve, poor fit] |
| Cc1cccc(CN2CCNc3cnc(-c4ccccc4)cc3C2)c1 | inconclusive: 56.2 µM [inhibitor, partial curve, poor fit] |
| O=C(Nc1ccc(C(F)(F)F)cc1)N1CCCC(Cn2cnc3cccnc32)C1 (stereo not drawn) | inactive |
| COCCNC(=O)C1CCN(Cc2ccccc2-c2ccc(C)c(Cl)c2)CC1 | inconclusive: 70.8 µM [inhibitor, single point] |
| CN(C)Cc1cn2c(=O)n(C)cc(-c3cccc(OCc4ccccc4)c3)c2n1 | inconclusive: 79.4 µM [inhibitor, partial curve, poor fit] |
| COc1cncc([C@@H](NC(=O)Cc2ccsc2)C2CC(O)C2)c1 (stereo partly drawn) | inactive |
| COc1ccc(-n2ccnc2CN(C)Cc2cc(C(C)C)on2)cc1 | inconclusive: 56.2 µM [inhibitor, partial curve, poor fit] |
